# In all, about 270,000 compounds went through this assay and about 5,800 (2.1%) were called active. The shares of active, inactive and inconclusive entries below differ from those in the screen. The call rests on the fitted dose curve; in most records, active means well fitted inhibition curve with a large enough effect; inconclusive means small, poorly fitted or top-dose-only effect; inactive means flat fitted curve, though single readings scatter. A potency beside an inconclusive call is a rough fit, not a confirmed value.
# Molecular target: Microtubule-associated protein tau (Homo sapiens) (UniProt P10636)
# Chain of UniProt P10636 (P10636 whole entry, looked up): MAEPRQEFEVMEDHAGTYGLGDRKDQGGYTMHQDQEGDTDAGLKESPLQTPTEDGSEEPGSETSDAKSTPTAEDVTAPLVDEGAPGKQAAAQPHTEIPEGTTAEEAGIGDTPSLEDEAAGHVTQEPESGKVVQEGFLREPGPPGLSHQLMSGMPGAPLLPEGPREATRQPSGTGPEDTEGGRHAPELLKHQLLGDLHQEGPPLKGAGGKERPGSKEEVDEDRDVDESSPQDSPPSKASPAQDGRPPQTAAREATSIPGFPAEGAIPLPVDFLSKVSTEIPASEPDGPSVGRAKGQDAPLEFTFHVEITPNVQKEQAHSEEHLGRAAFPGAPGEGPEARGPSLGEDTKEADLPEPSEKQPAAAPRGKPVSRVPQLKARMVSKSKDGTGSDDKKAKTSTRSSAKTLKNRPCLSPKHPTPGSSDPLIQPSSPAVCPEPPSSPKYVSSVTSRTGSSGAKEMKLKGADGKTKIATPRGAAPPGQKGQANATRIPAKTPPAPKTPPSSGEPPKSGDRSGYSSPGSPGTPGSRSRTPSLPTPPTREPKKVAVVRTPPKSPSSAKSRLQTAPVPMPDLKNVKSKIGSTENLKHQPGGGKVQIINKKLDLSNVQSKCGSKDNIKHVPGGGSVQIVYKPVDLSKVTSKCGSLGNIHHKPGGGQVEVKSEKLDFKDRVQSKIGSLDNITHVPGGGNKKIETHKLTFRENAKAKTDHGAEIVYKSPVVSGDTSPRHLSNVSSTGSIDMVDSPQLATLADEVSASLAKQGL
# Experiment: qHTS for Inhibitors of Tau Fibril Formation, Thioflavin T Binding; further: nearly all actives have a fitted effect of over 55% in size
# Settings: recombinant tau K18 P301L (four-repeat tau fragment), heparin-induced fibrillization, ThT fluorescence; series mostly up to 57.4 µM; activity, negative = inhibition: at the top concentration
# How it was run: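 Heparin-induced (20 uM) aggregation of recombinant human K18 P301L tau, 15 uM unlabeled with 0.24 uM labeled, pH 7 acetate buffer, 6 hr at 37 C with compound. Fibrils quantified by 30 uM ThT fluorescence after 1 hr ambient incubation.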
# On the % scale 0 is the no-effect control and ±100 the full control effect; potency means the concentration at half of the fitted maximal effect; tags describe the fitted curve by direction and shape.
SMILES,Potency,"activity, negative = inhibition"
CC(C)(C)OC(=O)N/N=C\c1ccc(OC(=O)c2cccs2)cc1,"inconclusive: 17.8 µM [inhibitor, partial curve]",–
COC(=O)CCN(C(=O)C1CCN(S(=O)(=O)c2c(C)noc2/C=C/c2ccccc2F)CC1)c1ccccc1,–,inactive: -4.34%
COc1ccc(N2CCN(c3oc(Cc4ccccc4)nc3C#N)CC2)cc1,"inconclusive: 7.94 µM [inhibitor, partial curve, poor fit]",–
CCc1ccccc1N1C(=O)N(CC(=O)c2ccc(OC)cc2)c2ccccc2S1(=O)=O,"inconclusive: 44.7 µM [inhibitor, single point]",–
Cc1ccc(N2C(S)=C(C#N)C(=O)NC23CCCCC3)cc1,"inconclusive: 39.8 µM [inhibitor, single point]",–
CCC(C)CCCCC(=O)N[C@@H](CCN)C(=O)N[C@H](C(=O)N[C@@H](CCN)C(=O)N[C@H]1CCNC(=O)C([C@@H](C)O)NC(=O)[C@@H](CCN)NC(=O)[C@H](CCN)NC(=O)[C@H](CC(C)C)NC(=O)[C@@H](CC(C)C)NC(=O)[C@H](CCN)NC1=O)[C@@H](C)O (stereo partly specified),–,inactive: -13.2%
CCc1cccc(NC(=O)Cn2nc3c4cc(F)ccc4n(Cc4cccc(C)c4)cc-3c2=O)c1,"inconclusive: 3.16 µM [inhibitor, full curve]",–
O=C(COc1ccccc1)N/N=C/c1ccc(O[C@@H]2O[C@H](CO)[C@@H](O)[C@H](O)[C@H]2O)cc1,–,inactive: 2.78%
Cc1nn(-c2ccc(F)cc2F)c2c1-c1nc(N3CCCC3)ncc1CC2,"inconclusive: 39.8 µM [inhibitor, single point]",–
Cc1ccc2oc(C(=O)Nc3sc4c(c3C(=O)NCc3cccnc3)CCCC4)cc(=O)c2c1,"inconclusive: 2 µM [inhibitor, partial curve]",–
CC(C)CC(=O)Nc1nnc(S(=O)(=O)N2CCc3ccccc32)s1,active: 2.24 µM,–
CCOC(=O)/C(C#N)=C/c1ccc(-c2ccc(C)cc2)o1,"inconclusive: 2.82 µM [inhibitor, full curve]",–
Cc1ccc(-n2nc3c(=O)n(CCCC(=O)NC(C)c4ccccc4)nc(C)c3c2C)cc1 (stereo unspecified),–,inactive: 1.75%
COC(=O)CC1Oc2ccc(C)cc2-n2cc(-c3ccc(C)cc3)nc21 (stereo unspecified),"inconclusive: 22.4 µM [inhibitor, partial curve, poor fit]",–
Cc1ccc(OCC(=O)N2CCc3ccccc32)cc1,"inconclusive: 3.98 µM [inhibitor, full curve]",–
Cc1ccc(NC(=O)CN2C(=O)S/C(=C\c3ccc(-c4cccc(C(=O)O)c4C)o3)C2=O)cc1C,"inconclusive: 15.8 µM [inhibitor, partial curve]",–
O=C(Oc1ccc(=O)n(-c2ccccc2)n1)c1ccc(F)cc1,"inconclusive: 12.6 µM [inhibitor, partial curve, poor fit]",–
COc1ccc(C2C(C#N)=C(N)OC3=C2C(=O)CC(C)(C)C3)cc1Cn1nc(C)c([N+](=O)[O-])c1C (stereo unspecified),–,inactive: -7.83%
COc1ccc(-c2nc(SCC(=O)Nc3ccc4c(c3)OCCO4)c(-c3ccccc3)[nH]2)cc1,"inconclusive: 12.6 µM [inhibitor, partial curve, poor fit]",–
CC(=O)NC(Cc1ccccc1)C(=O)OCC(=O)c1ccccc1 (stereo unspecified),"inconclusive: 25.1 µM [inhibitor, single point]",–
COc1ccc(NC(=O)CSc2ccc3c4c(cccc24)C(=O)c2ccccc2-3)cc1,"inconclusive: 2 µM [inhibitor, partial curve]",–
CCSc1nn(CC(=O)Nc2cccc(Cl)c2)c(N)c1S(=O)(=O)c1ccc(OC)cc1,–,inactive: 21.3%

SMILES,Potency,"activity, negative = inhibition"
COc1cc(/C=N/NC(N)=O)ccc1OCC(=O)Nc1ccc(C)c(C)c1,"inconclusive: 2.51 µM [inhibitor, full curve]",–
COc1cccc(C(=O)/C=C/Nc2ccc(NC(C)=O)cc2)c1,"inconclusive: 4.47 µM [inhibitor, full curve]",–
O=C(O)C1=C[C@@H](c2ccc3c(c2)OCO3)C[C@@H](OCCCCO)O1,"inconclusive: 0.631 µM [inhibitor, partial curve]",–
O=C(/C=C/c1ccco1)Nc1cccnc1Cl,"inconclusive: 31.6 µM [inhibitor, partial curve]",–
C=CCc1cc(/C=C/c2nc(O)c([N+](=O)[O-])c(=O)[nH]2)cc(OC)c1O,"inconclusive: 11.2 µM [inhibitor, partial curve]",–
COc1ccc(C(=O)/C=C/c2ccc(OC(=O)c3cc(OC)c(OC)c(OC)c3)cc2)cc1,"inconclusive: 5.01 µM [inhibitor, full curve, poor fit]",–
CN(C)S(=O)(=O)c1ccc(C(=O)Nc2ccc(-n3nncc3-c3ccccc3)cc2)cc1,–,inactive: 15.9%
C=CCNC(=S)NNC(=O)c1cccn(Cc2cccc(Cl)c2)c1=O,–,inactive: 1.14%
CCOC(=O)N1CCN(C2=Nc3cccc4cccc2c34)CC1,"inconclusive: 10 µM [inhibitor, partial curve]",–
O=C(NCc1ccco1)c1cccnc1-c1nc2ccccc2s1,"inconclusive: 31.6 µM [inhibitor, single point]",–
C=C(C)c1cccc(C(C)(C)NC(=O)NCc2ccncc2)c1,"inconclusive: 17.8 µM [inhibitor, partial curve]",–
Cc1ccc(NCC(=O)Nc2ccc(Br)cc2)cc1F,"inconclusive: 10 µM [inhibitor, partial curve]",–
Cc1ccn2c(C(=O)N/N=C/c3ccc(CNC(=O)C(=O)Nc4ccc(C)c(C)c4)o3)c(C)nc2c1,"inconclusive: 12.6 µM [inhibitor, partial curve]",–
Cc1cccc(N2CCN(C(=O)CCSCc3ccccc3F)CC2)c1C,"inconclusive: 20 µM [inhibitor, partial curve, poor fit]",–
COC(=O)c1cc(O)c(O)c(O)c1,–,inactive: -18.6%
COc1ccccc1N1CCN(C(=O)Cn2ncc3c(=O)oc4ccc(C)cc4c32)CC1,–,inactive: -10.4%
O=[N+]([O-])c1ccc(Oc2ccc(C(F)(F)F)cn2)cc1,–,inactive: -12.6%
Cc1ccc(NC(=O)CSc2ccc(-c3sc(-c4ccccc4)nc3C)nn2)cc1F,"inconclusive: 3.16 µM [inhibitor, full curve]",–
COc1ccccc1NC(=O)CSC1CC(=O)N(c2ccc3c(c2)OCO3)C1=O (stereo unspecified),"inconclusive: 31.6 µM [inhibitor, partial curve]",–
Cc1cc(C(=O)OCC(=O)c2ccc3c(c2)NC(=O)CO3)c2ccccc2n1,"inconclusive: 1.12 µM [inhibitor, partial curve]",–
O=C(CSC1=Nc2ccccc2C2CC=NN12)Nc1ccc2c(c1)OCO2 (stereo unspecified),"inconclusive: 20 µM [inhibitor, partial curve]",–
O=C(O)c1cc(-c2ccc(/C=N/Nc3ccc([N+](=O)[O-])cn3)o2)ccc1Cl,active: 1.26 µM,–

SMILES,Potency,"activity, negative = inhibition"
c1ccc(C2CN3CCSC3=N2)cc1 (stereo unspecified),inactive,–
COc1ccc(/C=N/Nc2nnc(Cc3ccc(OC)c(OC)c3)c(=O)[nH]2)cc1,–,inactive: -2.82%
O=C(Oc1ccc(C(=S)N2CCOCC2)cc1)c1ccc(Br)cc1,–,inactive: -6.09%
O=C1CN(C(=O)Nc2ccccc2C(F)(F)F)C(c2ccccc2)c2c(sc3c2CCCC3)N1 (stereo unspecified),–,inactive: -14.6%
Cc1c(N/C=C/C(=O)c2ccc(Cl)cc2)c(=O)n(-c2ccccc2)n1C,"inconclusive: 10 µM [inhibitor, partial curve]",–
COc1ccccc1NS(=O)(=O)c1cc2c(cc1Cl)NC(=O)CO2,"inconclusive: 22.4 µM [inhibitor, single point]",–
COC(=O)c1ccc(COc2cc(O)c3c(c2)OC(C)(C)CC3=O)cc1,"inconclusive: 14.1 µM [inhibitor, partial curve]",–
CCOC(=O)c1cnc2ccc(OCC)cc2c1N1CCN(c2ccccc2OC)CC1,"inconclusive: 17.8 µM [inhibitor, partial curve]",–
CCOC(=O)N1CCN(c2nc3ccccc3nc2C(C#N)C(=O)NCCc2ccccc2)CC1 (stereo unspecified),"inconclusive: 15.8 µM [inhibitor, partial curve]",–
S=C(NCc1ccc(Cl)cc1)NN1CCOCC1,–,inactive: -0.39%
O=C(N/N=C/c1ccc(O)cc1)c1ccc(COc2cc(Cl)ccc2Cl)o1,"inconclusive: 12.6 µM [inhibitor, partial curve]",–
O=c1c(C(c2ccccc2)c2c(O)nc3n(c2=O)CCCS3)c(O)nc2n1CCCS2,"inconclusive: 6.31 µM [inhibitor, full curve]",–
NC(=O)c1cc(C(=O)c2ccc(Cl)cc2)c[nH]1,–,inactive: -4.54%
CCCn1nnnc1NC(=O)CSc1ccc(Cl)cc1,–,inactive: 0.138%
COc1cc(/C=C2/S/C(=N/S(=O)(=O)c3ccccc3)NC2=O)c([N+](=O)[O-])cc1OC,active: 15.8 µM,–
COc1ccc(C2C(C#N)=C(SCC(=O)Nc3ccc(C)cc3)NC3=C2C(=O)CC(C)(C)C3)cc1 (stereo unspecified),–,inactive: -11.3%
COCCn1c(-c2cccs2)nc2c(c(=O)c3ccccc3n2C)c1=O,"inconclusive: 15.8 µM [inhibitor, partial curve]",–
Cc1ccc(OCC(O)Cn2c(=N)n(CCN3CCCCC3)c3ccccc32)cc1 (stereo unspecified),"inconclusive: 14.1 µM [inhibitor, partial curve]",–
COC(=O)c1ccc(C(C2C(=O)CC(C)(C)CC2=O)C2C(=O)CC(C)(C)CC2=O)cc1,"inconclusive: 20 µM [inhibitor, partial curve]",–
CCN1CCN(c2cc(C)c3cc(NC(=O)c4cc(Cl)ccc4OC)ccc3n2)CC1,active: 14.1 µM,–
C=CCNc1nc2c3ccccc3n(C(C)=O)c2s1,active: 28.2 µM,–
CCc1ccc(-c2csc(NC(=O)c3cccnc3)n2)cc1,–,inactive: -12.1%
